Test results published in EP4628104A1, “ANTI-CLDN18.2 ANTIBODY-DRUG CONJUGATE, AND PHARMACEUTICAL COMPOSITION THEREOF AND USE THEREOF” (priority 2022, dated 2024).

Legend:
[1] = Aggregate verification by gel (SEC) chromatography; type: physicochemical; conditions: peak area percentage, 280 nm, ADCs prepared in Example 3
Method: Components of the anti-CLDN18.2 antibody-drug conjugates prepared in Example 3 were separated using a gel chromatographic column. Elution was performed using a neutral buffer containing 10% isopropanol as the mobile phase. The components were eluted sequentially in descending order according to their molecular weights. The gel chromatographic column used was an ACQUITY UPLC Protein BEH SEC Column 200Å, 1.7 µm, 4.6 × 300 mm, and the column temperature was 25 °C. The mobile phase was 50 mM phosphate buffered saline-200 mM sodium chloride-10% isopropanol at pH 7.0 (12.53 g of disodium hydrogen phosphate dodecahydrate, 2.33 g of sodium dihydrogen phosphate dihydrate, and 11.69 g of sodium chloride were weighed, about 800 mL of ultrapure water was added, and the mixture was stirred until complete dissolution; 100 mL of isopropanol was added, ultrapure water was added to bring the volume to 1000 mL, and the mixture was mixed uniformly and then filtered through a 0.22 µm filter). 20 µg of the anti-CLDN18.2 antibody conjugates were precisely taken and injected into a liquid chromatograph, and the detection was performed at the wavelength of 280 nm. The flow rate was 0.3 mL/min, and isocratic elution was performed for 15 min.
Data were processed, and the results were quantitatively analyzed using the area normalization method. The peak area percentages of the aggregate, the monomer, and the low molecular weight impurities of the anti-CLDN18.2 antibody-drug conjugates were calculated. The aggregate peak appeared before the main peak, the monomer peak was the main peak, and the low molecular weight impurity peaks appeared after the main peak. The content proportions of the monomer, the aggregate, and the low molecular weight impurities of the anti-CLDN18.2 antibody-drug conjugates are shown in Table 1. Table 1. The content proportions of the monomer, the aggregate, and the low molecular weight impurities of the anti-CLDN18.2 antibody-drug conjugates

[2] = test system: NIH-3T3-CLDN18.1 cells; assay: Non-specific killing of CLDN18.2-negative cells; type: cell-based, Mouse; conditions: up to 20 nM, 96 h; ADCs of Example 5
Method: To detect the non-specific killing effect of the anti-CLDN18.2 antibody-drug conjugates prepared in Example 5 on CLDN18.2-negative cells, the killing activity detection was performed using CLDN18.1-overexpressing NIH-3T3.
cDNA encoding human CLDN18.1 (SEQ ID NO: 66) was obtained by gene synthesis and then subcloned into an expression vector pcDNA3.1. The expression vector was transfected into NIH-3T3 cells according to the instructions of the Lipofectamine 2000 transfection reagent (Thermo, Cat. No. 11668019) to obtain CLDN18.1-overexpressing NIH-3T3 -CLDN18.1.
NIH-3T3-CLDN18.1 cells in the logarithmic growth phase were taken, adjusted to a cell density of 1 × 10^4 cells/mL, and added to a 96-well plate at 100 µL/well. The cells were placed in an incubator at 37 °C with 5% CO2 for adherence culture overnight. The anti-CLDN18.2 antibody-drug conjugate was prepared with a DMEM medium containing 10% FBS. Cells subjected to overnight adherence culture were taken out. […] Then, 180 µL of the solution was pipetted from each well and transferred to an opaque white plate, bubbles were removed, the chemiluminescence value was read, and the viability of the cells was calculated. Viability(%) = (Luminescence value of the experimental group)/(Luminescence value of the control group) × 100% [formula]
Data were analyzed using Graphpad Prism 5.

[3] = test system: U2OS-Luciferase; assay: Bystander effect in mixed culture of positive and negative cells; type: cell-based, Human; conditions: viability of U2OS-Luciferase negative cells co-cultured with CLDN18.2-overexpressing BxPC-3, 120 h, up to 33.3 nM; ADCs of Example 5
Method: CLDN18.2-overexpressing BxPC-3 was selected as positive cells and U2OS stably expressing luciferase (U2OS-Luciferase) was selected as negative cells. These cells were mixed and cultured to detect the bystander effect of the anti-CLDN18.2 antibody-drug conjugates prepared in Example 5.
Positive cells and negative cells in the logarithmic growth phase were taken, both adjusted to a density of 4 × 10^4 cells/mL, and added to a 96-well plate at 50 µL/well. The anti-CLDN18.2 antibody-drug conjugate was subjected to gradient dilution with the McCoy's 5A complete medium (GIBCO, Cat. No. 16600-082) containing 10% FBS and added to the 96-well plate at 50 µL/well. The initial concentration of the anti-CLDN18.2 antibody-drug conjugate is 33.3 nM, with a 5-fold gradient dilution for a total of 8 concentrations. The 96-well plate was incubated in an incubator at 37 °C with 5% CO2 for 120 h. […] The chemiluminescence value was determined using a microplate reader, and the viability of U2OS-Luciferase cells was calculated. Viability(%) = (Luminescence value of the experimental group)/(Luminescence value of the control group) × 100% [formula]
Data were analyzed using GraphPad Prism 5.

[4] = Pharmacokinetic evaluation in rats (total antibodies, ELISA); type: in vivo; conditions: SD rats, intravenous, 10 mg/kg, Mean ± SD, ADCs of Example 3
Method: SD rats (160-180 g) (source: Laboratory Animal Operation Department, Shanghai Institute for Biomedical and Pharmaceutical Technologies) were randomly divided into 3 groups of 4 rats each, and were intravenously injected with 15F9-DDDXd, hz28G3-1.1-DDDXd, and hz28G3-1.1-DDDXd prepared in Example 3 at a dose of 10 mg/kg, respectively. Before and after the administration, SD rats were all not fasted and had free access to water.
About 0.2 mL of blood was collected from the jugular vein at 30 min, 2 h (± 1 min), 8 h (± 1 min), 24 h (± 5 min), 48 h (± 5 min), 4 d (± 10 min), 7 d (± 10 min), 10 d (± 10 min), 14 d (± 20 min), 21 d (± 20 min), or 28 d (± 20 min) after the administration, anticoagulated with EDTA-K2, and centrifuged at 4 °C for 10 min at 4000 rpm to separate the plasma.
An appropriate volume of the separated plasma was pipetted and diluted with a sample diluent (PBST containing 1% BSA) at a minimum dilution factor of (20-fold). For a sample that required a higher dilution, it was further diluted with a sample diluent containing 5% blank rat plasma. Then, the mixture was vortexed until it was mixed uniformly to obtain the test sample. The quantitative range of the detection method was 19.53125 ng/mL-2500 ng/mL. AffiniPure Goat Anti-Human IgG, F(ab')2 fragment specific (Jackson ImmunoResearch, 109-005-097) was diluted with the PBS buffer (pH 7.4) to a concentration of 1 µg/mL, added to a 96-well plate at 100 µL/well for coating, and incubated at 4 °C overnight. The 96-well plate was washed with PBST (PBS containing 0.5% of Tween-20). Then, the blocking buffer (PBST containing 1% of BSA) was added at 200 µL/well, and the plate was blocked at room temperature for 2-3 h. The blocking buffer was discarded. The diluted standard curve sample, the quality control sample, and the above test sample were added at 100 µL/well, and the mixture was incubated at room temperature for 2 h. After the 96-well plate was washed with PBST, Goat anti-Human Kappa Light Chain Cross-Adsorbed Secondary Antibody, HRP (Thermofisher, A18859) was added according to a volume ratio of 1:10,000, and the mixture was incubated at room temperature for 1 h. After the 96-well plate was washed with PBST, the TMB solution (Tiangen, Cat. No. PA107-01) was added at 100 µL/well, and the mixture was incubated at room temperature for 14 min in the dark. The reaction was stopped with 1 M H2SO4. The absorbance value was read using a Tecan Spark microplate reader at a wavelength of 450 nm/630 nm, and curve fitting was performed using a 4-parameter logistic fit.
Intravenous exposure of the anti-CLDN18.2 antibody-drug conjugates was evaluated by in vivo pharmacokinetics in rats and the mean pharmacokinetic parameters for total antibodies (including antibodies conjugated and unconjugated with cytotoxic drugs) in SD rats of each group were calculated, including drug peak concentration (Cmax), time to peak (Tmax), area under the concentration-time curve (AUC(0-t)), elimination half-life (t1/2), mean residence time (MRT(0-t)), and clearance (CL), as shown in Table 6 below.

B1: hz28G3-1.1-DDDXd (conjugate)
heavy: QVQLVQSGAEVKKPGASVKVSCKTSGYSFTDYLMLWVRQAPGQGLEWMGNINPYYGRTTYALKFKGRVTMTVDRSTSTVYMELSSLRSEDTAVYYCARDGYSLRNAMDYWGQGTLVTVSS[human IgG1 constant region left out here]
light: DIVMTQSPDSLAVSLGERATINCKSSQSLFNSGNQKNYLAWYQQKPGQPPKLLIYGASTRESGVPDRFSGSGSGTDFTLTISSLQAEDVAVYYCQNAHSYPYTFGQGTKVEIKRTVAAPSVFIFPPSDEQLKSGTASVVCLLNNFYPREAKVQWKVDNALQSGNSQESVTEQDSKDSTYSLSSTLTLSKADYEKHKVYACEVTHQGLSSPVTKSFNRGEC
With B1 the Aggregate [1] was 0.80%, the “Low molecular weight impurities” value [1] was 0.10% and the Monomer [1] was 99.10%. For the same molecule, the “killing activity against NIH-3T3-CLDN18.1 cells” value [2] was “no killing activity”, the bystander effect [3] was “significant bystander effect” and the “AUC(0-21d)” value [4] was 573 ± 9.4 µg·days/mL. For the same molecule, the CL [4] was 15.8 ± 0.879 mL/day/kg, the Cmax [4] was 193 ± 6.67 µg/mL and the “MRT(0-21d)” value [4] was 137 ± 6.19 h. It also gave a Tmax [4] of 0.499 ± 0 h and a t1/2 [4] of 163 ± 35.8 h.
